Drawing on the supplement of paper PMC6135742, this text covers total cell number for 49 compounds.

Structures are written as SMILES. Where a name gives a salt, the structure may show the parent alone. ± gives the standard deviation of the averaged measurements. Over roughly 2,600 compounds, “total cell number (DAPI+ nuclei) relative to DMSO vehicle control” has its median near -1.4; the lowest 2% begin near -23. This is one part of the list.

The test system of the test is jimpy (Plp1 jimpy) mouse iPSC-derived oligodendrocyte progenitor cells. In words: total cell number (DAPI+ nuclei) relative to DMSO vehicle control (SDs above negative control mean); higher = more surviving cells. The settings on record: 10 µM; 3 days.
The compound `CCCC(=O)OCOC(=O)C1=C(C)NC(C)=C(C(=O)OC)C1c1cccc(Cl)c1Cl` (centres undefined) [Clevidipine Butyrate] came in with a total cell number of -0.295.

Take `NC(CO)C(=O)NNCc1ccc(O)c(O)c1O` (centres undefined) [Benserazide HCl]: the total cell number is -0.925.

As for `NC(CO)C(=O)NNCc1ccc(O)c(O)c1O` (centres undefined) [Benserazide hydrochloride], the total cell number amounted to 2.53.

`C[C@H]1COc2c(N3CCN(C)CC3)c(F)cc3c(=O)c(C(=O)O)cn1c23` [Levofloxacin] returned a total cell number of 0.884.

`CN(C)CCCN1c2ccccc2CCc2ccccc21` [Imipramine hydrochloride] had a total cell number of -3.21.

`C[N+](C)(C)CCO.[Cl-]` [Choline Chloride] yielded a total cell number of 0.55.

The compound `CN1CCN(C2CCN(C(=O)Nc3cc(Oc4ccc(NC(=O)C5(C(=O)Nc6ccc(F)cc6)CC5)c(F)c4)ccn3)CC2)CC1` [Golvatinib (E7050)] gave a total cell number of -11.9.

Compound `C/C=C1\[C@H]2C=C(C)C[C@]1(N)c1ccc(=O)[nH]c1C2` [(-)-Huperzine A (HupA)] showed a total cell number of -0.573.

`Nc1ccc2c3c(cccc13)C(=O)NC2=O` [4-Amino-1,8-naphthalimide]: the total cell number is -4.86.

For `CCOC(=O)[C@H](CCc1ccccc1)N[C@@H](C)C(=O)N1Cc2cc(OC)c(OC)cc2C[C@H]1C(=O)O` [Moexipril HCl], the total cell number is -1.62.

`Cc1cc(O)c2c(c1)C(=O)c1cc(O)cc(O)c1C2=O` [Emodin] yielded a total cell number of 1.35 ± 3.1.

Consider `O=C1NC(=O)/C(=C/c2cccc(C(F)(F)F)c2)S1`, for which the total cell number was found to be 1.23.

For `Clc1ccc(Nc2nnc(Cc3ccncc3)c3ccccc23)cc1` [Vatalanib (PTK787) 2HCl], the total cell number is -11.6.

As for `Cn1cc(-c2ccc3nnc(Sc4ccc5ncccc5c4)n3n2)cn1`, the total cell number was -3.2.

In turn, `CCC(C)n1ncn(-c2ccc(N3CCN(c4ccc(OCC5COC(Cn6cncn6)(c6ccc(Cl)cc6Cl)O5)cc4)CC3)cc2)c1=O` (centres undefined) [Itraconazole] registered a total cell number of -6.79.

For the compound `Cc1cccc(Nc2ccccc2C(=O)O)c1C` [Mefenamic Acid], the total cell number was -2.09.

Take `CCOc1cc(N)c(Cl)cc1C(=O)NCC1CN(Cc2ccc(F)cc2)CCO1` (centres undefined) [Mosapride Citrate]: the total cell number was found to be 10.9.

`CC(N)C(=O)OC(C)(C)Cc1ccc(Cl)cc1` (centres undefined) [Alaproclate hydrochloride]: the total cell number was -0.939.

Regarding `C[C@H]1[C@H](OC(=O)CCC(=O)O)O[C@@H]2O[C@@]3(C)CC[C@H]4[C@H](C)CC[C@@H]1[C@@]24OO3` [Artesunate], the total cell number is -7.08.

In turn, `O=C1c2c(O)cc(O)cc2O[C@H](c2cc(O)c(O)c(O)c2)[C@H]1O` [Dihydromyricetin] had a total cell number of -2.24.

`Cc1ccc(-c2c(-c3nn(C)c4ncnc(N5CC[C@H](N6CCCCC6)C5)c34)cnn2C)cc1` showed a total cell number of -2.1.

Consider `O=C1OC(CN2CCOCC2)CN1/N=C/c1ccc([N+](=O)[O-])o1` (centres undefined) [Furaltadone HCl], for which the total cell number is -3.6.

`CNCCCN1c2ccccc2CCc2ccccc21` [Desipramine hydrochloride] displayed a total cell number of -5.78.

Take `c1cn2cc(-c3ccc4cn[nH]c4c3)nc(Nc3ccc(N4CCOCC4)cc3)c2n1`: the total cell number was -8.75.

Take `CC(=O)OCC1=C(C(=O)O)N2C(=O)[C@@H](NC(=O)Cc3cccs3)[C@H]2SC1` [Cephalothin sodium]: the total cell number was -0.915.

Compound `Clc1ccc(C(Cn2ccnc2)OCc2csc3c(Cl)cccc23)c(Cl)c1` (centres undefined) [Sertaconazole nitrate] showed a total cell number of -6.02.

As to `C=CCn1c(=O)c2cnc(Nc3ccc(N4CCN(C)CC4)cc3)nc2n1-c1cccc(C(C)(C)O)n1`, the total cell number was -14.6.

`Cc1nc2n(c(=O)c1CCN1CCC(c3noc4cc(F)ccc34)CC1)CCCC2O` (centres undefined) [Paliperidone] had a total cell number of -0.241.

The compound `CCCCc1nc(Cl)c(CO)n1Cc1ccc(-c2ccccc2-c2nnn[nH]2)cc1` [Losartan Potassium (DuP 753)] came in with a total cell number of 3.6.

`CC1(C)S[C@@H]2[C@H](NC(=O)Cc3ccccc3)C(=O)N2[C@H]1C(=O)O` [Penicillin G Sodium]: the total cell number came out at 0.293.

For `O=C(Nc1cccc2cccnc12)c1ccc(N2C(=O)[C@@H]3[C@H](C2=O)[C@@H]2C=C[C@H]3C2)cc1` [IWR-1-endo], the total cell number was -6.81.

`CCC(=O)OCC(=O)[C@@]1(OC(=O)CC)[C@@H](C)C[C@H]2[C@@H]3CCC4=CC(=O)C=C[C@]4(C)[C@@]3(Cl)[C@@H](O)C[C@@]21C` [Beclomethasone dipropionate] registered a total cell number of 1.79.

In the case of `CN(C)c1ccccc1CN1CCCN(Cc2ccccc2N(C)C)C1c1ccncc1`, the total cell number was -6.57.

Consider `O=c1c2ccccc2nc2n1CCc1c-2[nH]c2ccccc12` [Rutaecarpine], for which the total cell number is -1.86 ± 1.9.

Compound `O=C(/C=C/C=C/c1ccc2c(c1)OCO2)N1CCCCC1` [Piperine] displayed a total cell number of 1.48.

The compound `COCC(=O)O[C@]1(CCN(C)CCCc2nc3ccccc3[nH]2)CCc2cc(F)ccc2[C@@H]1C(C)C` [Mibefradil dihydrochloride] came in with a total cell number of -8.78.

On to `O=C(Nc1cccc(Nc2ncc(Br)c(NCCc3cnc[nH]3)n2)c1)N1CCCC1`, for which the total cell number was -24.3.

As to `COc1ccccc1N1CCN(CCCNc2cc(=O)n(C)c(=O)n2C)CC1` [Urapidil HCl], the total cell number is -1.37.

For the compound `COc1ccccc1N1CCN(CCCNc2cc(=O)n(C)c(=O)n2C)CC1` [Urapidil hydrochloride], the total cell number was -1.36.

Turning to `O=C(CCCN1CCC(O)(c2cccc(C(F)(F)F)c2)CC1)c1ccc(F)cc1` [Trifluperidol hydrochloride], the total cell number is -3.51.

As for `COc1nc(N)nc2c1ncn2[C@@H]1O[C@H](CO)[C@@H](O)[C@@H]1O` [Nelarabine], the total cell number was -2.12.

Consider `CCc1cnn2c(NCc3ccc[n+]([O-])c3)cc(N3CCCC[C@H]3CCO)nc12`, for which the total cell number is -9.73.

`C[C@@]1(c2cc(-c3cncnc3)c(F)cc2F)CCSC(N)=N1` displayed a total cell number of -3.15.

For the compound `O=[N+]([O-])c1cc2nc(O)c(O)nc2cc1[N+](=O)[O-]`, the total cell number was -0.0399.

In the case of `CC(=O)/C(C)=N/O` [2,3-Butanedione monoxime], the total cell number is -0.361.

In turn, `CC(C)NCC(O)c1cc(O)cc(O)c1` (centres undefined) [Metaproterenol hemisulfate] displayed a total cell number of -0.411.

Regarding `C#CCN(C)CCCOc1ccc(Cl)cc1Cl` [Clorgyline hydrochloride], the total cell number is -0.0667.

Turning to `O=C(O)CN(CCN(CC(=O)O)CC(=O)O)CCN(CC(=O)O)CC(=O)O` [Diethylenetriaminepentaacetic acid], the total cell number is -2.48.

`CC(C)(CO)Cc1cc(C(C)(C)C)c(O)c(C(C)(C)C)c1` registered a total cell number of 1.01.
